The results in this text go back to a collection of fitness landscapes (doi:10.1126/science.1257360).

This is one part of the list.

Sequences and labels used below:
B1: PhoQ; a variant is named by its letters at X, in order, P23837 (parent)
chain: MKKLLRLFFPLSLRVRFLLATAAVVLVLSLAYGMVALIGYSVSFDKTTFRLLRGESNLFYTLAKWENNKLHVELPENIDKQSPTMTLIYDENGQLLWAQRDVPWLMKMIQPDWLKSNGFHEIEADVNDTSLLLSGDHSIQQQLQEVREDDDDAEMTHSVAVNVYPATSRMPKLTIVVVDTIPVELKSSYMVWSWFIYVLSANLLLVIPLLWVAAWWSLRPIEALAKEVRELEEHNRELLNPATTRELTSLVRNLNRLLKSERERYDKYRTTLTDLTHSLKTPLXXLQXXLRSLRSEKMSVSDAEPVMLEQISRISQQIGYYLHRASMRGGTLLSRELHPVAPLLDNLTSALNKVYQRKGVNISLDISPEISFVGEQNDFVEVMGNVLDNACKYCLEFVEISARQTDEHLYIVVEDDGPGIPLSKREVIFDRGQRVDTLRPGQGVGLAVAREITEQYEGKIVAGESMLGGARMEVIFGRQHSAPKDE

This assay covers variants of B1. The experiment in a line: enrichment ratio after two sorts for PhoP signalling (ratio (wild type AVST 3.29)); higher = more functional. The following applies: with PhoP (E. coli).
In the case of HENC, the enrichment ratio was no more than 0.25.

For IKCD, the enrichment ratio was no more than 0.25. Under WCLL stands 0.851. In the case of HHSQ, the enrichment ratio is no more than 0.25.

With QSDP, the enrichment ratio was no more than 0.25. For the variant SYKH, the enrichment ratio is no more than 0.25. Consider KNGR, for which the enrichment ratio is no more than 0.25.

Turning to QNKC, the enrichment ratio is no more than 0.25.

Turning to IDVQ, the enrichment ratio is no more than 0.25. As for DIFK, the enrichment ratio was no more than 0.25. For LMRK, the enrichment ratio is no more than 0.25. On to ESEL, for which the enrichment ratio is no more than 0.25. To AGFI belongs no more than 0.25; to QYSC, no more than 0.25; to PFNW, no more than 0.25.

Consider VFWA, for which the enrichment ratio was no more than 0.25. As for CTPH, the enrichment ratio is no more than 0.25.

In the case of IIVH, the enrichment ratio was no more than 0.25. On to GRQG, for which the enrichment ratio was no more than 0.25. As for NAQN, the enrichment ratio was no more than 0.25. As to LPSY, the enrichment ratio is no more than 0.25.

On to MATN, for which the enrichment ratio was no more than 0.25.

For YCDP, the enrichment ratio was no more than 0.25. Regarding ALVT, the enrichment ratio stood at 1.4. For the variant RHDT, the enrichment ratio is no more than 0.25. With EQLC, the enrichment ratio is no more than 0.25. For NVNF, the enrichment ratio was no more than 0.25. Consider LEWI, for which the enrichment ratio turned out to be 2.42.

GAGK: the enrichment ratio was no more than 0.25.

As for TWLV, the enrichment ratio is no more than 0.25. On to FDSE, for which the enrichment ratio was no more than 0.25. For the variant KHVI, the enrichment ratio is no more than 0.25. Regarding QNTT, the enrichment ratio is no more than 0.25. Consider MERR, for which the enrichment ratio is no more than 0.25.

For the variant EEFV, the enrichment ratio is no more than 0.25. As to HQML, the enrichment ratio is no more than 0.25. To RTYM belongs no more than 0.25. Consider NLEK, for which the enrichment ratio is no more than 0.25.

Consider NRNN, for which the enrichment ratio is no more than 0.25.

Consider DNIT, for which the enrichment ratio is no more than 0.25. Turning to THWQ, the enrichment ratio was no more than 0.25. In the case of VTPG, the enrichment ratio is no more than 0.25. On to DPDQ, for which the enrichment ratio is no more than 0.25. Take SLKL: the enrichment ratio is no more than 0.25.

In the case of NWDS, the enrichment ratio is no more than 0.25. With VLDC, the enrichment ratio was no more than 0.25.

In the case of MKAK, the enrichment ratio was no more than 0.25.

On to LTIF, for which the enrichment ratio is no more than 0.25. To AGST belongs 14.8; to YDEW, no more than 0.25. In the case of VFHI, the enrichment ratio is no more than 0.25.

Regarding NLNP, the enrichment ratio was no more than 0.25. Turning to LCLD, the enrichment ratio was no more than 0.25. Take MFFN: the enrichment ratio is no more than 0.25. For the variant ETDW, the enrichment ratio was no more than 0.25. Under WGTY stands no more than 0.25; under HAAI, no more than 0.25. Under RQCW stands no more than 0.25; under STMY, 12.6. As for APAC, the enrichment ratio is no more than 0.25.

On to MQSA, for which the enrichment ratio was no more than 0.25. Consider SLRG, for which the enrichment ratio was no more than 0.25. To VQYC belongs no more than 0.25.

Turning to IIYM, the enrichment ratio is no more than 0.25. On to RIDK, for which the enrichment ratio was no more than 0.25. For GGIC, the enrichment ratio was 5.5. With EKRA, the enrichment ratio is no more than 0.25. As to NLAY, the enrichment ratio was no more than 0.25. For DFIY, the enrichment ratio was no more than 0.25. To PDPT belongs no more than 0.25; to FLRE, no more than 0.25. Under EEWI stands no more than 0.25; under HLDW, no more than 0.25; under FFEW, no more than 0.25. Take AYHT: the enrichment ratio was no more than 0.25. On to TGHP, for which the enrichment ratio was no more than 0.25. QDQC: the enrichment ratio is no more than 0.25. As to TTYY, the enrichment ratio turned out to be 2.55. To PANA belongs no more than 0.25. To LQNE belongs no more than 0.25.

Turning to VVTG, the enrichment ratio is no more than 0.25.

Take DYKN: the enrichment ratio was no more than 0.25.

With SSEW, the enrichment ratio is no more than 0.25. Under DDGL stands no more than 0.25; under YWMY, no more than 0.25.

With RLLY, the enrichment ratio is no more than 0.25.

As to LKAY, the enrichment ratio is no more than 0.25.

With KQVH, the enrichment ratio was no more than 0.25. With FAMH, the enrichment ratio is no more than 0.25. For the variant HRFM, the enrichment ratio is no more than 0.25.

For PMWD, the enrichment ratio was no more than 0.25. Under QDCM stands no more than 0.25; under KANA, no more than 0.25; under FRLH, no more than 0.25. Turning to RGYT, the enrichment ratio was no more than 0.25. As to ISYP, the enrichment ratio was no more than 0.25. To HDQE belongs no more than 0.25; to YADY, no more than 0.25; to RCPE, no more than 0.25. As to IDWV, the enrichment ratio was no more than 0.25. In the case of TDFM, the enrichment ratio is no more than 0.25.

In the case of TFDP, the enrichment ratio is no more than 0.25. Consider ASTD, for which the enrichment ratio was no more than 0.25.

For the variant PHPK, the enrichment ratio was no more than 0.25. As for SRFD, the enrichment ratio is no more than 0.25.

YNIY: the enrichment ratio is no more than 0.25. As for IRDI, the enrichment ratio is no more than 0.25. For NHFL, the enrichment ratio was no more than 0.25.

QIHP: the enrichment ratio is no more than 0.25. As for IVYW, the enrichment ratio was no more than 0.25. Under EGAP stands no more than 0.25; under PFSG, no more than 0.25. Under ALSP stands no more than 0.25; under GGNF, no more than 0.25; under KMFW, no more than 0.25. Turning to YGTK, the enrichment ratio was no more than 0.25.

As to NSHV, the enrichment ratio was no more than 0.25.

With GYPP, the enrichment ratio was no more than 0.25.

Turning to VRQH, the enrichment ratio was no more than 0.25.

Consider QMRS, for which the enrichment ratio is no more than 0.25. RGWL: the enrichment ratio is no more than 0.25. As for WMNM, the enrichment ratio was no more than 0.25. Turning to YYWA, the enrichment ratio was no more than 0.25. QKYA: the enrichment ratio was no more than 0.25. For EDSD, the enrichment ratio is no more than 0.25. For TAAR, the enrichment ratio is no more than 0.25. Under THCR stands no more than 0.25; under QLYG, no more than 0.25. Consider HSWI, for which the enrichment ratio was no more than 0.25. With DQNC, the enrichment ratio was no more than 0.25. WQVN: the enrichment ratio was no more than 0.25. To PAIV belongs no more than 0.25; to GWMC, no more than 0.25. Under DSTK stands no more than 0.25; under DNWY, no more than 0.25; under LMMK, no more than 0.25. With IYQY, the enrichment ratio was no more than 0.25. Take YRGA: the enrichment ratio is no more than 0.25.

Turning to DIVT, the enrichment ratio was no more than 0.25.

In the case of QVVC, the enrichment ratio was no more than 0.25.

On to NLPC, for which the enrichment ratio is no more than 0.25. To LFAS belongs no more than 0.25; to QYWA, 0.652; to LKTL, no more than 0.25.

For VTKH, the enrichment ratio was no more than 0.25. WISF: the enrichment ratio is no more than 0.25. GDEL: the enrichment ratio was no more than 0.25. In the case of AMPH, the enrichment ratio is no more than 0.25.

Regarding FWNY, the enrichment ratio was no more than 0.25. Take GTCG: the enrichment ratio stood at 7.53. Regarding ACCN, the enrichment ratio is 12.1. For DNPH, the enrichment ratio is no more than 0.25.

For SYVQ, the enrichment ratio is no more than 0.25.
